Results from patent US11834430B2, “Compounds useful as inhibitors of isoprenylcysteine carboxyl methyltransferase” (AGENCY FOR SCIENCE, TECHNOLOGY AND RESEARCH, priority 2017, dated 2023).
Certain results were filed several times, with different values. The other results are left out here. There may be further records. Values given together read as repeated measurements on other runs, samples or individuals; one of them may be the mean.

Target: human ICMT (Homo sapiens (Human), UniProt O60725)
Assay: ICMT biochemical assay (Methyltransferase-Glo)
Conditions: ICMT membrane extract from Sf-9 cells; 30 min preincubation, 90 min reaction
Experimental: Recombinant human ICMT was prepared by infection of Sf9 cells with a recombinant baculovirus containing the entire open reading frame of the human ICMT cDNA.
Cells producing ICMT were harvested 66 hours post-infection. The cells are homogenized and resuspended in 5 mM NaHPO4 (pH 7.0), and a cocktail of protease inhibitors. The membrane was pelleted, after removal of nuclei and debris, at 100,000×g for 1 hour. Membranes were resuspended in 5 mM NaHPO4 (pH 7.0) with 5 mM EDTA at 10-12 mg/ml. The suspension was stored at −80° C. in multiple aliquots.
An ICMT enzymatic assay was developed using Promega's Methyltransferase-GloTMreagents. In the assay, ICMT catalyzes the methylation of the N-Acetyl-S-farnesyl-L-cysteine by transferring a methyl group from SAM to the farnesylated cysteine and further converts the SAM to SAH. The methyltransferase activity is measured based on the amount of SAH produced from the reaction through the use of coupling enzymes that convert the SAH to ATP. […]
A final concentration of 2.0 μM and 20 μM of SAM and peptide were added and further incubated for 90 minutes at room temperature before adding the MTase Glo and detection reagent. Reaction signals were detected using microplate readers on luminescent mode (Satire Tecan). The IC50 was determined by nonlinear regression, using GraphPad Prism version, 5.03.

human ICMT, sequence (O60725 whole entry): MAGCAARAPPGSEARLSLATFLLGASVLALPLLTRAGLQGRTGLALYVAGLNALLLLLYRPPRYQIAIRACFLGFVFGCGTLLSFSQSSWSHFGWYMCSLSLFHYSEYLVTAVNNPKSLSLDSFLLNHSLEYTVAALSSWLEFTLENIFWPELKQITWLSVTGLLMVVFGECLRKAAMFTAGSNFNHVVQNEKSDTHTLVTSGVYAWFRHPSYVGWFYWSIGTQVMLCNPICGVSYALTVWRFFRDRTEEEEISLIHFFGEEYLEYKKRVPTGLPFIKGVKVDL

Which IC50 does the source give for `Cc1nccn1-c1cccc(OCCOc2ccc(C#N)cc2Cl)c1` [Compound 5, 3-chloro-4-(2-(3-(2-methyl-1H-imidazol-1-yl)phenoxy)ethoxy)benzonitrile] here?
The IC50 was 3 nM, 0.2 nM, 0.4 nM [one cell].
